Experimental data reported in the antibiotic and cytotoxicity screens of Wong et al. (2023).
Some of the results follow.

These compounds were tested on HepG2 (assay: cytotoxicity call (relative viability < 0.9)). Conditions: 10 µM.

Row | SMILES | cytotoxicity call
1 | COc1ccc(S(=O)(=O)Nc2ccc3c(c2)C(=O)N([C@H](C)CO)C[C@H](C)[C@H](CN(C)C(=O)NC2CCCCC2)OCCCC[C@H](C)O3)cc1 | inactive
2 | C[C@H]1CN([C@@H](C)CO)C(=O)c2cccc(NC(=O)c3ccc(-c4nccs4)cc3)c2O[C@@H]1CN(C)Cc1ccc(C(=O)O)cc1 | inactive
3 | O=C(NC1CCC1)[C@@H]1[C@@H](CO)[C@@H]2Cn3c(cccc3=O)[C@@H]2N1CC1CCOCC1 | inactive
4 | CCCCC[C@H](O)/C=C/[C@@H]1[C@H]2C/C(=C/CCCC(=O)O)O[C@@H]2C[C@H]1O | inactive
5 | C[C@@H]1CCCCO[C@@H](CN(C)C(=O)Nc2cccc3ccccc23)[C@@H](C)CN([C@@H](C)CO)C(=O)c2cc(NC(=O)Nc3ccc(C(F)(F)F)cc3)ccc2O1 | inactive
6 | Cc1noc(C)c1S(=O)(=O)Nc1ccc2c(c1)C(=O)N([C@H](C)CO)C[C@H](C)[C@@H](CN(C)S(=O)(=O)c1ccccc1)O2 | inactive
7 | C[C@@H](O)[C@@H](O)[C@H]1CNc2[nH]c(N)nc(=O)c2N1 | inactive
8 | COCCOC(=O)N1C(=O)[C@@]2(c3ccccc31)[C@H](c1ccc(O)cc1)N1[C@H](c3ccccc3)[C@H](c3ccccc3)OC(=O)[C@H]1[C@@H]2C(=O)N1CCc2cc(OC)c(OC)cc2C1 | inactive
9 | C[C@H](CO)N1C[C@H](C)[C@@H](CN(C)S(=O)(=O)c2ccc(Cl)cc2)Oc2c(cccc2N(C)C)C1=O | inactive
10 | C[C@H](CO)N1C[C@H](C)[C@H](CN(C)C(=O)Nc2ccc(F)cc2)Oc2ccc(NC(=O)Nc3ccc(C(F)(F)F)cc3)cc2C1=O | inactive
11 | C[C@H](CO)N1C[C@H](C)[C@H](CN(C)S(=O)(=O)c2cccs2)Oc2ccc(NS(C)(=O)=O)cc2C1=O | inactive
12 | COc1cc2c(cc1OC)CN(C(=O)[C@H]1[C@@H]3C(=O)O[C@@H](c4ccccc4)[C@@H](c4ccccc4)N3[C@@H](c3ccccc3OCCO)[C@]13C(=O)Nc1ccc(C#CC4=CCCCC4)cc13)CC2 | inactive
13 | O=C(C[C@@H]1C[C@@H]2c3cc(NC(=O)Cc4ccncc4)ccc3O[C@@H]2[C@H](CO)O1)NCCc1ccccc1 | inactive
14 | Cc1noc(C)c1NC(=O)Nc1cccc2c1O[C@H](CN(C)Cc1ccc(C(F)(F)F)cc1)[C@H](C)CN([C@@H](C)CO)C2=O | inactive
15 | COc1cccc(NC(=O)C[C@@H]2CC[C@H]3[C@H](COc4ccc(NC(=O)C5CCOCC5)cc4C(=O)N3C)O2)c1 | inactive
16 | C[C@H]1CN([C@@H](C)CO)C(=O)c2cc(NC(=O)Nc3ccc(C(F)(F)F)cc3)ccc2O[C@@H]1CN(C)S(=O)(=O)c1ccc(Cl)cc1 | active
17 | NCc1ccc(C(N)=O)cc1 | inactive
18 | CCC(=O)N[C@H]1C=C[C@@H](CC(=O)OC)O[C@@H]1CO | inactive
19 | COc1oc(C(=O)NC2CCCCC2)c(-c2ccc(Cl)cc2)c1S(=O)(=O)c1ccc(Br)cc1 | inactive
20 | CO[C@H]1CN(C)C(=O)c2cc(NC(=O)Nc3ccccc3F)ccc2OC[C@H](C)N(Cc2ccccc2C(=O)O)C[C@@H]1C | inactive

Row | SMILES | cytotoxicity call
21 | CCOc1nc(N)cc(N)c1C#N | inactive
22 | COc1ccc(S(=O)(=O)N[C@H]2C=C[C@H](CC(=O)N3CCC(Cc4ccccc4)CC3)O[C@@H]2CO)cc1 | inactive
23 | C[C@H](CO)N1C[C@H](C)[C@H](CN(C)Cc2ccc(-c3ccccc3)cc2)Oc2c(NS(=O)(=O)c3ccc(Cl)cc3)cccc2C1=O | inactive
24 | COc1ccc(NC(=O)Nc2ccc3c(c2)CC(=O)N([C@@H](C)CO)C[C@@H](C)[C@H](CN(C)Cc2ccc(-c4ccccc4)cc2)O3)cc1 | active
25 | OC[C@@H](O)[C@@H](O)[C@@H](O)CO | inactive
26 | Cc1ccc(S(=O)(=O)Nc2ccc3c(c2)C(=O)N([C@H](C)CO)C[C@@H](C)[C@H](CN(C)C(=O)C2CCCCC2)OCCCC[C@H](C)O3)cc1 | inactive
27 | C[C@H](CO)N1C[C@H](C)[C@H](CN(C)S(=O)(=O)c2ccccc2)OCCCC[C@H](C)Oc2ccc(NC(=O)Nc3ccc4c(c3)OCO4)cc2C1=O | inactive
28 | COc1ccc2c3c([nH]c2c1)[C@@H](CO)N(C[C@]13CCN(CC1)C(=O)c1ccccc1F)C(=O)Nc1ccccc1F | inactive
29 | C[C@@H]1CN([C@@H](C)CO)C(=O)c2cc(-c3ccc(C(=O)N(C)C)cc3)cnc2O[C@H]1CN(C)C(=O)CN(C)C | inactive
30 | C[C@@H]1CCCCO[C@@H](CN(C)C(=O)C2CCCCC2)[C@@H](C)CN([C@@H](C)CO)C(=O)c2cc(NS(=O)(=O)c3ccc(Cl)cc3)ccc2O1 | inactive
31 | CC(C)c1nc(/N=C/N(C)C)nc(=O)n1C | inactive
32 | C[C@@H]1CN([C@@H](C)CO)C(=O)c2cc(NC(=O)NC3CCCCC3)ccc2O[C@@H]1CN(C)Cc1ccc(-c2ccccc2)cc1 | active
33 | CC(C)NC(=O)N(C)C[C@H]1Oc2ccc(NS(=O)(=O)c3cn(C)cn3)cc2CC(=O)N([C@H](C)CO)C[C@H]1C | inactive
34 | COc1cccc2c1C(=O)c1c(O)c3c(c(O)c1C2=O)CC(O)(C(=O)CO)CC3OC1CC(N)C(O)C(C)O1 (stereo not given) | active
35 | C[C@@H]1CN([C@H](C)CO)C(=O)c2cccc(NS(=O)(=O)c3ccc(Cl)cc3)c2O[C@H]1CN(C)C(=O)Nc1cccc2ccccc12 | inactive
36 | COc1ccc(CN2C[C@@H](C)[C@H](OC)CN(C)C(=O)c3ccc(NC(=O)c4nc5ccccc5s4)cc3OC[C@@H]2C)cc1 | inactive
37 | C[C@@H]1CN([C@H](C)CO)C(=O)CCCn2cc(nn2)CO[C@H]1CN(C)S(=O)(=O)c1ccc2c(c1)OCCCO2 | inactive
38 | Cc1ccc(S(=O)(=O)N(C)C[C@@H]2Oc3ccc(NS(=O)(=O)c4c(C)noc4C)cc3CC(=O)N([C@H](C)CO)C[C@@H]2C)cc1 | inactive
39 | C#CC1(O)CCC2C3CCC4=CC(=O)CCC4C3CCC21C (stereo not given) | inactive
40 | O=C(C[C@H]1CC[C@@H]2[C@H](COC[C@@H](O)CN2Cc2cc(F)ccc2F)O1)N[C@H]1CCN(Cc2ccccc2)C1 | active
